52 compounds from PubChem BioAssay AID1346428 (National Center for Advancing Translational Sciences (NCATS), 2018) can be followed below.

Molecules are shown by their SMILES. Values joined by “and” are separate entries in the source; they are usually repeats but may differ in a detail not shown here. Equal values may be shown once. In all, about 48,000 compounds went through this assay and about 1,200 (2.5%) were called active. Roughly 2% stayed inconclusive and do not appear here.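 The calls were made as follows: active = activation of at least 60% and not above a set upper limit (about 1 call in 100 departs from these limits); inconclusive = activation of 40% to 60%, or above that upper limit; inactive = activation under 40%.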 The list shows a part of the results.

This test addresses Probable G-protein coupled receptor 32 (Homo sapiens) (UniProt O75388). The test is described as follows: qHTS for Agonists of Human Resolvin D1 Receptor DRV1. Also: 0% is about no effect. The settings on record: CHO-K1 GPR32 beta-arrestin PathHunter luminescence, 90 min; at 76.9 µM; stronger effect = higher value; zero percent set by DMSO-only wells. A digest of the protocol: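 PathHunter beta-arrestin recruitment in CHO-K1 cells stably expressing ProLink-tagged GPR32. Cells were exposed to compound for 90 min at 37 C, then chemiluminescence was read after 1 h detection at ambient temperature; DMSO served as basal control.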
UniProt O75388, sequence (O75388 whole entry, looked up): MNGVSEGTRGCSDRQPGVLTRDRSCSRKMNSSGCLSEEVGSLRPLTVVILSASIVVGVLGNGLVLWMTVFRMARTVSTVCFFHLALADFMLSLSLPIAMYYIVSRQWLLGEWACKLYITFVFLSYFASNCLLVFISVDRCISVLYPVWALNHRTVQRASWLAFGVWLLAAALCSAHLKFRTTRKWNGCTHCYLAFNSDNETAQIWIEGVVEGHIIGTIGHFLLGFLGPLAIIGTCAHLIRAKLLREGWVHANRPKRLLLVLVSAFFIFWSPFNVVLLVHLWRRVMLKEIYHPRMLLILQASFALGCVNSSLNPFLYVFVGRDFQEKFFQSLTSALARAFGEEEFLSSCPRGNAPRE
In general terms: In qHTS, concentration-response curves come from the screen itself.
In the case of `Cc1ccc(-c2nnc3ccccc3c2C(=O)Nc2ccc(C)c(F)c2)cc1`, the activation is inactive: -12.1%.
Under `CCOC(=O)c1ccc(NC2(c3ccccc3)C(=O)c3ccccc3C2=O)cc1` stands inactive: -13%; under `COc1cc(OC)c(NS(=O)(=O)c2cc3c(cc2C)N(C(C)=O)CCO3)cc1Cl`, inactive: -20.5%.
The same measure for `CCc1nnc(SCc2nc(-c3cccc(Cl)c3)oc2C)c2cc3sc(C)cc3n12`: inactive: -12.5%; for `COc1ccccc1NC(=O)CN(c1cc(C)cc(C)c1)S(=O)(=O)c1c(C)[nH]c(=O)[nH]c1=O`: inactive: 24.2%; for `CCC(C(=O)Nc1ccc(C(C)C)cc1)n1nc(C)n2c(cc3cc(C)ccc32)c1=O` (configuration not stated): inactive: -4.73%.
In the case of `NC(=O)c1c(NC(=O)c2cc(-c3ccc(F)cc3)on2)sc2c1CCCC2`, the activation was inactive: -2.85%.
The same measure for `Cc1cccc(NC(=O)Cn2nnc(C(=O)NCc3cccs3)c2N)c1`: inactive: 15.8%; for `Cc1ccccc1C(=O)NCc1nc(-c2ccc(Cl)cc2)no1`: inactive: -2.46%; for `Cc1ccc(C)c(Cn2c(=O)cc(C(F)(F)F)c3c(C)nn(C)c32)c1`: inactive: -9.12%.
Turning to `COc1ccc(Cl)cc1NC(=O)CCn1c(=O)c2cccn2c2ccccc21`, the activation is inactive: -12.8%.
As to `CN(C)c1ccc(CNC(=O)C2CCCN(S(=O)(=O)c3ccc4c(c3)CCCC(=O)N4)C2)cc1` (configuration not stated), the activation was inactive: 4.68%.
As for `CCN(C(=O)CCc1nc(-c2ccc(C)cc2)no1)c1cccc(Cl)c1`, the activation was inactive: -30.1%.
Under `Cc1ccccc1OCC(=O)Nc1ccc(C(=O)OCc2cc(=O)n3ccsc3n2)cc1` stands inactive: 1.22%; under `Cc1ccccc1NC(=O)c1nc(S(C)(=O)=O)ncc1N(Cc1ccco1)Cc1sccc1C`, inactive: -23%.
Regarding `Cc1ccc(-c2nc(NC(=O)CSc3ccc4ccccc4n3)ns2)cc1`, the activation was inactive: -12.9%.
The same measure for `COC(=O)c1cc2sccc2n1CC(=O)Nc1ccc(C)cc1C`: inactive: -10%; for `COc1cc2c(cc1OC)C(COc1ccc3c(C)cc(=O)oc3c1)N(C(=O)Cc1ccccc1)CC2` (configuration not stated): inactive: -4.9%.
`[O-][n+]1cccc(/C(Cl)=N/OC[C@@H](O)CN2CCCCC2)c1`: the activation was inactive: 7.98%.
The same measure for `Cc1ccc(S(=O)(=O)c2cn(Cc3ccccc3)c3cc(N4CCCC4)c(F)cc3c2=O)cc1`: inactive: -11.1%; for `CCOc1ccccc1C(=O)NC1(C(F)(F)F)C(=O)Nc2c1c(=O)[nH]c(=O)n2-c1ccccc1` (configuration not stated): inactive: 13.2%.
Under `Cc1cc(C)c(Cn2c3ccccc3c3cnn(CC(=O)NCCC4=CCCCC4)c(=O)c32)c(C)c1` stands inactive: -10.6%; under `COc1cccc(CNC(=O)c2ccc3nc(-c4ccccc4)c(-c4ccccc4)nc3c2)c1OC`, inactive: -13%.
With `CCC(C)Sc1oc(-c2ccco2)nc1S(=O)(=O)c1ccc(Cl)cc1` (configuration not stated), the activation was inactive: -42.8%.
Under `COc1ccc(Nc2nnc(-c3ccc(C)c(S(=O)(=O)NCc4nc5ccccc5[nH]4)c3)c3ccccc23)cc1` stands inactive: -25.4%; under `Clc1ccc(-c2csc(-c3nc(-c4ccc(Br)s4)cs3)n2)cc1`, inactive: 3.85%; under `O=C(NCc1ccc(Cl)cc1)c1ccc2c(c1)NC(=O)C(CS(=O)(=O)Cc1ccc(F)cc1Cl)N2` (configuration not stated), inactive: -10.9%.
The same measure for `Cc1ccc(NC(=O)Cn2nnc(C(=O)NCCc3ccccc3)c2N)cc1`: inactive: -23.3%.
Regarding `COc1ccc(C)cc1NC(=O)c1cc2ccccn2n1`, the activation is inactive: 4.88%.
As for `O=C(CCN1CCN(CCO)CC1)Nc1ccc(Br)cc1`, the activation was inactive: -4.25%.
Under `CCc1ccc(NC(=O)C2CCCN(S(=O)(=O)c3cccc4nsnc34)C2)cc1` (configuration not stated) stands inactive: -12.8%.
Under `CCOc1ccccc1CNC(=O)CCC(=O)N1CCSc2ccccc21` stands inactive: -15.5%; under `COc1ccccc1Cc1nc2ccccc2nc1SCC(=O)Nc1ccc2c(c1)OCO2`, inactive: -15.5%; under `COc1ccccc1CNC(=O)CCCCn1c(=O)c2ccccc2n(CC(=O)Nc2c(C)cc(C)cc2C)c1=O`, inactive: -7.85%.
As to `CN1C(CSCC(F)(F)F)Nc2cc(Cl)c(S(N)(=O)=O)cc2S1(=O)=O` (configuration not stated), the activation was inactive: 23.6%.
For `O=[N+]([O-])c1cc(-c2nc(-c3ccccc3)no2)ccc1NCc1cccnc1`, the activation is inactive: 18.7%.
As to `CCCN(CCC)C(=O)CSc1c2c(nc3ccc(Cl)cc13)CCCC2`, the activation is inactive: 36.8%.
The same measure for `CC(=O)[C@]1(O)Cc2c(O)c3c(c(O)c2[C@@H](O[C@H]2C[C@H](N)[C@H](O)[C@H](C)O2)C1)C(=O)c1ccccc1C3=O`: inactive: -63.5% and inactive: -55.3%.
Under `Cc1ccc(NC(=O)CN2C(=O)C(c3ccc(C(C)(C)C)cc3)=NC2(C)C)cc1` stands inactive: -8.15%; under `Cc1cc(C)cc(-n2c(SCC(=O)Nc3cccc(F)c3)nc3c([nH]c4ccccc43)c2=O)c1`, inactive: 4.76%.
The same measure for `COc1ccc(N2CCN(C(=O)COc3ccccc3C#N)CC2)cc1`: inactive: -7.12%; for `Cc1ccc(C(=O)Nc2ccc(-c3nc4ccccc4o3)cc2)cc1Cl`: inactive: -6.7%.
Consider `Brc1ccc(Nc2c3c(nc4nncn24)CCC3)cc1`, for which the activation was inactive: -18.7%.
Regarding `COc1ccc(OC)c(NC(=O)Cn2c(=O)n(Cc3ccco3)c(=O)c3cc(OC)c(OC)cc32)c1`, the activation was inactive: 19.8%.
The same measure for `Cc1ccc(C)c(NC(=O)C(Cc2ccccc2)n2cccc2)c1` (configuration not stated): inactive: -15.4%; for `Cc1ccc(NC(=O)C2CCC(CNS(=O)(=O)c3ccc4c(c3)CCCC(=O)N4)CC2)cc1F` (configuration not stated): inactive: 11.5%.
Consider `COCCNc1nc2c(c(=O)n(Cc3cccc(Cl)c3)c(=O)n2C)n1C`, for which the activation was inactive: -2.6%.
The same measure for `CCc1ccc(NC(=O)C2=C(C)C(=O)OC23CCCCC3)cc1`: inactive: -24.3%.
Under `COc1ccc(OCC(=O)Nc2c(C(=O)N3CCN(c4ccccc4)CC3)oc3ccccc23)cc1` stands inactive: -5.61%; under `COc1ccc2c(c1)c1c(c(=O)n(Cc3ccccc3)c(=O)n1Cc1ccccc1Cl)n2C`, inactive: -0.87%.
Under `O=C(NCc1ccc(F)cc1)c1cc2cccc3c2n1CCS3` stands inactive: -21.9%.
With `O=C(O)c1cccc(NC(=O)c2cc3cc(Br)cc(Br)c3oc2=O)c1`, the activation was inactive: -6.84%.
